Experimental data reported in patent US20230340048A1.

How the values were obtained:
TGFβ3 = TGFβ3 (UniProt P10600); test: cell-based or functional assay
TGFβ1 = TGFβ1 (UniProt P01137); test: cell-based or functional assay
UniProt P01137, sequence (P01137 279-390 limits assumed): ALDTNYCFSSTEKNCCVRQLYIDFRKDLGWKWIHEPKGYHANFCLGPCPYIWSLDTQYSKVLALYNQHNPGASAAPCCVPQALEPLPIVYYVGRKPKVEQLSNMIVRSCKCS

UniProt P10600, sequence (P10600 301-412): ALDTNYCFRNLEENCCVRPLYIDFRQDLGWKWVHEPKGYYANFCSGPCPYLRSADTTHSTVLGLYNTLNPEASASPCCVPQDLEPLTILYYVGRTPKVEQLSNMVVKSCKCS

| Average IC50, A549/IL-11 release assay (TGFβ3) [pM] | IC50 Ratio TGFβ3:TGFβ1 (average ratio), A549/IL-11 release assay (TGFβ3) | Average IC50, A549/IL-11 release assay (TGFβ1) [pM] | IC50 ratio for TGFβ3:TGFβ1, representative experiment, A549/IL-11 release assay (TGFβ3) | Average IC50, A549 IL-11 release assay (TGFβ3) [pM] | IC50 Ratio TGFβ3:TGFβ1 (average ratio), A549 IL-11 release assay (TGFβ3) | Average IC50, A549 IL-11 release assay (TGFβ1) [pM] | Binder |
| --- | --- | --- | --- | --- | --- | --- | --- |
| 29.6 | 1.54 | 20.2 |  |  |  |  | Protein 134 (Fc fusion) IPPHVQKSVNNDMIVTDNNGAVKFPQLCKFCDVRFSTCDNQKSCMSNCSITSICEKPQEVCVAVWRKNDENITLETVCHDPKLPYHDFILEDAASPKCIMKEKKKPGETFFMCSCSSDECNDNIIFSEEYNTSNPDDNNGAVKFPQLCKFCDVRFSTCDNQKSCMSNCSITSICEKPQEVCVAVWRKNDENITLETVCHDPKLPYHDFILEDAASPKCIMKEKKKPGETFFMCSCSSDECNDNIIFGGGGSGGGGSGGGG[human IgG1 Fc and a few adjoining residues not spelt out] |
| 26.5 | 1.73 | 15.2 |  |  |  |  | Protein 129 (Fc fusion) IPPHVQKSVNNDMIVTDNNGAVKFPQLCKFCDVRFSTCDNQKSCMSNCSITSICEKPQEVCVAVWRKNDENITLETVCHDPKLPYHDFILEDAASPKCIMKEKKKPGETFFMCSCSSDECNDNIIFSEEYNDMIVTDNNGAVKFPQLCKFCDVRFSTCDNQKSCMSNCSITSICEKPQEVCVAVWRKNDENITLETVCHDPKLPYHDFILEDAASPKCIMKEKKKPGETFFMCSCSSDECNDNIIFGGGGSGGGGSGGGGSGGGGSGGGGSGGG[human IgG1 Fc and a few adjoining residues not spelt out] |
| 8.35 | 1.77 | 4.79 |  |  |  |  | Protein 133 (Fc fusion) IPPHVQKSVNNDMIVTDNNGAVKFPQLCKFCDVRFSTCDNQKSCMSNCSITSICEKPQEVCVAVWRKNDENITLETVCHDPKLPYHDFILEDAASPKCIMKEKKKPGETFFMCSCSSDECNDNIIFSEEYNTSNPDDNNGAVKFPQLCKFCDVRFSTCDNQKSCMSNCSITSICEKPQEVCVAVWRKNDENITLETVCHDPKLPYHDFILEDAASPKCIMKEKKKPGETFFMCSCSSDECNDNIIFSEEYNTIPPHVQKSVNNDMIVTDNNGAV[human IgG1 Fc and a few adjoining residues not spelt out] |
| 8 | 1.34 | 5.99 |  |  |  |  | Protein 132 (Fc fusion) IPPHVQKSVNNDMIVTDNNGAVKFPQLCKFCDVRFSTCDNQKSCMSNCSITSICEKPQEVCVAVWRKNDENITLETVCHDPKLPYHDFILEDAASPKCIMKEKKKPGETFFMCSCSSDECNDNIIFSEEYNTSNPDDNNGAVKFPQLCKFCDVRFSTCDNQKSCMSNCSITSICEKPQEVCVAVWRKNDENITLETVCHDPKLPYHDFILEDAASPKCIMKEKKKPGETFFMCSCSSDECNDNIIFSEEYNTSNPDVQKSVNNDMIVTDNNGAV[human IgG1 Fc and a few adjoining residues not spelt out] |
| 7.7 | 1.31 | 5.71 |  |  |  |  | Protein 131 (Fc fusion) IPPHVQKSVNNDMIVTDNNGAVKFPQLCKFCDVRFSTCDNQKSCMSNCSITSICEKPQEVCVAVWRKNDENITLETVCHDPKLPYHDFILEDAASPKCIMKEKKKPGETFFMCSCSSDECNDNIIFSEEYNDMIVTDNNGAVKFPQLCKFCDVRFSTCDNQKSCMSNCSITSICEKPQEVCVAVWRKNDENITLETVCHDPKLPYHDFILEDAASPKCIMKEKKKPGETFFMCSCSSDECNDNIIFSEEYNTSNPDVQKSVNNDMIVTDNNGAV[human IgG1 Fc and a few adjoining residues not spelt out] |
| 8.91 | 1.24 | 7.09 |  |  |  |  | Protein 130 (Fc fusion) IPPHVQKSVNNDMIVTDNNGAVKFPQLCKFCDVRFSTCDNQKSCMSNCSITSICEKPQEVCVAVWRKNDENITLETVCHDPKLPYHDFILEDAASPKCIMKEKKKPGETFFMCSCSSDECNDNIIFSEEYNDMIVTDNNGAVKFPQLCKFCDVRFSTCDNQKSCMSNCSITSICEKPQEVCVAVWRKNDENITLETVCHDPKLPYHDFILEDAASPKCIMKEKKKPGETFFMCSCSSDECNDNIIFSEEYNTGGGGSGGGGSGGGGSGGGGSGG[human IgG1 Fc and a few adjoining residues not spelt out] |

More lines, now with the values behind:

| Binder | Average IC50, A549/IL-11 release assay (TGFβ3) [pM] | IC50 Ratio TGFβ3:TGFβ1 (average ratio), A549/IL-11 release assay (TGFβ3) | Average IC50, A549/IL-11 release assay (TGFβ1) [pM] | IC50 ratio for TGFβ3:TGFβ1, representative experiment, A549/IL-11 release assay (TGFβ3) | Average IC50, A549 IL-11 release assay (TGFβ3) [pM] | IC50 Ratio TGFβ3:TGFβ1 (average ratio), A549 IL-11 release assay (TGFβ3) | Average IC50, A549 IL-11 release assay (TGFβ1) [pM] |
| --- | --- | --- | --- | --- | --- | --- | --- |
| Protein 106 (Fc fusion) IPPHVQKSVNNDMIVTDNNGAVKFPQLCKFCDVRFSTCDNQKSCMSNCSITSICEKPQEVCVAVWRKNDENITLETVCHDPKLPYHDFILEDAASPKCIMKEKKKPGETFFMCSCSSDECNDNIIFSEEYPHVQKSVNNDMIVTDNNGAVKFPQLCKFCDVRFSTCDNQKSCMSNCSITSICEKPQEVCVAVWRKNDENITLETVCHDPKLPYHDFILEDAASPKCIMKEKKKPGETFFMCSCSSDECNDNIIFSEEYPHVQKSVNNDMIVTDNNGAV[human IgG1 Fc and a few adjoining residues not spelt out] | 8.27 | 2.54 | 3.27 |  |  |  |  |
| Protein 96 (Fc fusion) IPPHVQKSVNNDMIVTDNNGAVKFPQLCKFCDVRFSTCDNQKSCMSNCSITSICEKPQEVCVAVWRKNDENITLETVCHDPKLPYHDFILEDAASPKCIMKEKKKPGETFFMCSCSSDECNDNIIFSEEYNTSNPDDNNGAVKFPQLCKFCDVRFSTCDNQKSCMSNCSITSICEKPQEVCVAVWRKNDENITLETVCHDPKLPYHDFILEDAASPKCIMKEKKKPGETFFMCSCSSDECNDNIIFSEEYNTSNPDNGAV[human IgG1 Fc and a few adjoining residues not spelt out] | 11.2 | 1.73 | 6.47 | 1.72 |  |  |  |
| Protein 116 (Fc fusion) IPPHVQKSVNNDMIVTDNNGAVKFPQLCKFCDVRFSTCDNQKSCMSNCSITSICEKPQEVCVAVWRKNDENITLETVCHDPKLPYHDFILEDAASPKCIMKEKKKPGETFFMCSCSSDECNDNIIFSEEYNTSNPDPHVQKSVNNDMIVTDNNGAVKFPQLCKFCDVRFSTCDNQKSCMSNCSITSICEKPQEVCVAVWRKNDENITLETVCHDPKLPYHDFILEDAASPKCIMKEKKKPGETFFMCSCSSDECNDNIIFSEEYNTSNPDIPPHVQKSVNNDMIVTDNNGAV[human IgG1 Fc and a few adjoining residues not spelt out] | 6.17 | 2.53 | 2.44 |  |  |  |  |
| Protein 112 (Fc fusion) IPPHVQKSVNNDMIVTDNNGAVKFPQLCKFCDVRFSTCDNQKSCMSNCSITSICEKPQEVCVAVWRKNDENITLETVCHDPKLPYHDFILEDAASPKCIMKEKKKPGETFFMCSCSSDECNDNIIFSEEYNDMIVTDNNGAVKFPQLCKFCDVRFSTCDNQKSCMSNCSITSICEKPQEVCVAVWRKNDENITLETVCHDPKLPYHDFILEDAASPKCIMKEKKKPGETFFMCSCSSDECNDNIIFSEEYMIVTDNNGAV[human IgG1 Fc and a few adjoining residues not spelt out] | 29.6 | 1.88 | 15.7 | 1.95 |  |  |  |
| Protein 113 (Fc fusion) IPPHVQKSVNNDMIVTDNNGAVKFPQLCKFCDVRFSTCDNQKSCMSNCSITSICEKPQEVCVAVWRKNDENITLETVCHDPKLPYHDFILEDAASPKCIMKEKKKPGETFFMCSCSSDECNDNIIFSEEYNTSNPDPHVQKSVNNDMIVTDNNGAVKFPQLCKFCDVRFSTCDNQKSCMSNCSITSICEKPQEVCVAVWRKNDENITLETVCHDPKLPYHDFILEDAASPKCIMKEKKKPGETFFMCSCSSDECNDNIIFSEEYNTSNPDPHVQKSVNNDMIVTDNNGAV[human IgG1 Fc and a few adjoining residues not spelt out] | 5.73 | 2.49 | 2.19 |  |  |  |  |
| Protein 107 (Fc fusion) IPPHVQKSVNNDMIVTDNNGAVKFPQLCKFCDVRFSTCDNQKSCMSNCSITSICEKPQEVCVAVWRKNDENITLETVCHDPKLPYHDFILEDAASPKCIMKEKKKPGETFFMCSCSSDECNDNIIFSEEYNTSNPDDNNGAVKFPQLCKFCDVRFSTCDNQKSCMSNCSITSICEKPQEVCVAVWRKNDENITLETVCHDPKLPYHDFILEDAASPKCIMKEKKKPGETFFMCSCSSDECNDNIIFSEEYNTSN[human IgG1 Fc and a few adjoining residues not spelt out] | 11.8 | 1.46 | 8.06 | 1.24 |  |  |  |
| T22d35-Fc-IgG1-v1 (CC) (Fc fusion) IPPHVQKSVNNDMIVTDNNGAVKFPQLCKFCDVRFSTCDNQKSCMSNCSITSICEKPQEVCVAVWRKNDENITLETVCHDPKLPYHDFILEDAASPKCIMKEKKKPGETFFMCSCSSDECNDNIIFSEEYNTSNPDIPPHVQKSVNNDMIVTDNNGAVKFPQLCKFCDVRFSTCDNQKSCMSNCSITSICEKPQEVCVAVWRKNDENITLETVCHDPKLPYHDFILEDAASPKCIMKEKKKPGETFFMCSCSSDECNDNIIFSEEYNTSN[human IgG1 Fc and a few adjoining residues not spelt out] |  |  |  | 3.41 | 8.64 | 3.2 | 2.89 |
| Protein 101 (Fc fusion) IPPHVQKSVNNDMIVTDNNGAVKFPQLCKFCDVRFSTCDNQKSCMSNCSITSICEKPQEVCVAVWRKNDENITLETVCHDPKLPYHDFILEDAASPKCIMKEKKKPGETFFMCSCSSDECNDNIIFSEEYNDMIVTDNNGAVKFPQLCKFCDVRFSTCDNQKSCMSNCSITSICEKPQEVCVAVWRKNDENITLETVCHDPKLPYHDFILEDAASPKCIMKEKKKPGETFFMCSCSSDECNDNIIFSEEYNTIPPHVQKSVNNDMIVTDNNGAV[human IgG1 Fc and a few adjoining residues not spelt out] | 9.73 | 1.44 | 6.75 | 1.51 |  |  |  |
